Source: PubChem BioAssay AID2112 (National Center for Advancing Translational Sciences (NCATS), 2009)
The whole screen tested about 240,000 compounds, of which about 15 (0.006%) were called active. The shares of active, inactive and inconclusive entries below differ from those in the screen. The call rests on the fitted dose curve; in most records, active means well fitted inhibition curve with a large enough effect; inconclusive means small, poorly fitted or top-dose-only effect, or effect the other way, or another doubt; inactive means no such curve, though single readings can be large or run the other way. Potencies of inconclusive entries are left out as doubtful fits.

biological target: Lysosomal alpha-glucosidase (Homo sapiens) (UniProt P10253); experiment: qHTS Assay for Inhibitors and Activators of Human alpha-Glucosidase From Spleen Homogenate; conditions: 4-MU-alpha-glucoside fluorescence; series mostly up to 79.9 µM;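 on activity change, negative = inhibition: 0% = enzyme with vehicle and -100% = no enzyme basal signal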
Procedure, shortened: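 Human spleen homogenate (1 ug) incubated with compounds and 1 mM 4-methylumbelliferyl-alpha-D-glucopyranoside in pH 5.0 citrate/phosphate buffer, 37 C, 40 min. Stopped at pH 10; 4-MU fluorescence (Ex 365/Em 440 nm); AC50 by Hill fit.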
Potency means the concentration at half of the fitted maximal effect; tags describe the fitted curve by direction and shape.

Structure (SMILES) | Potency | activity change, negative = inhibition
O=C1C(=O)c2cccc3cccc1c23 | inactive | –
CCN(c1ccccc1)S(=O)(=O)c1cc(C(=O)Oc2ccc3c(C)cc(=O)oc3c2)ccc1C | inconclusive [activator, partial curve] | –
O=C1OCC(CO)(CO)N=C1NNc1ccccc1[N+](=O)[O-] | inactive | –
CC(C)[C@H](N)C(=O)N[C@@H](CCC(N)=O)C(=O)NCC(=O)N[C@@H](CCC(=O)O)C(=O)N[C@@H](CCC(=O)O)C(=O)N[C@@H](CO)C(=O)N[C@@H](CC(N)=O)C(=O)N[C@@H](CC(=O)O)C(=O)N[C@@H](CCCCN)C(=O)O | inactive | –
CCc1cc(=O)oc2c(C)c(O)c(CN(C)C)cc12 | inconclusive [activator, partial curve] | –
CCN1CCN(Cc2c(O)c(Cl)cc3c(C)cc(=O)oc23)CC1 | inconclusive [activator, partial curve] | –
O=C(Oc1cc2oc(=O)c3c(c2cc1Cl)CCCC3)c1cccs1 | inconclusive [activator, partial curve] | –
Cc1cc(-n2c(=O)c(C#N)cc3c(=O)n4ccccc4nc32)no1 | inconclusive [activator, partial curve] | –
CC(=O)Nc1ccc(-c2cn3cccnc3n2)cc1 | inconclusive [activator, single point] | –
CNc1nc(-c2ccccc2)cc(C)c1S(C)(=O)=O | inconclusive [activator, partial curve] | –
CC1CCc2nn(CC(=O)NC3CCCC3)cc2C1 (centres undefined) | inconclusive [inhibitor, single point] | –
Cc1ccc2nc(-c3ccc(N)cc3)sc2c1 | inconclusive [activator, partial curve] | –
CCCCN(CCCC)c1ccc(C(=O)c2ccccc2C(=O)O)c(O)c1 | inconclusive [inhibitor, full curve, poor fit] | –
CCOC(=O)C1(O)CSc2nc3sc(C(=O)O)c(C)c3c(=O)n21 (centres undefined) | inconclusive [inhibitor, full curve, poor fit] | –
CNCCCCOc1ccc(C(C)(C)C)cc1Cl | inconclusive [inhibitor, partial curve, poor fit] | –
CCN(CC)CCCNC(=O)CCC(=O)Nc1ccc2nc(N3CCC(C)CC3)cc(C)c2c1 | inconclusive [activator, single point] | –
O=C(O)c1ccc(N=c2oc3cc(O)ccc3cc2C(=O)NCc2ccccc2)cc1 | inconclusive [activator, single point] | –
COc1ccc(C2NC(=O)NC(c3ccccc3)=C2c2nc3ccccc3s2)cc1 (centres undefined) | inconclusive [inhibitor, single point] | –
O=C(Nc1c2ccccc2nc2ccccc12)C(Cl)(Cl)Cl | inconclusive [activator, partial curve] | –
Oc1ccc(-c2csc(Nc3ncccn3)n2)cc1O | inactive | –
COC(=O)C1=CNC=C(C(=O)OC)C1c1ccc(C(=O)OC)cc1 | inconclusive [activator, partial curve] | –
Cc1nc(NC(=O)CC(C)C)sc1-c1csc(Nc2ccc(Cl)cc2)n1 | inconclusive [inhibitor, single point] | –

Structure (SMILES) | Potency | activity change, negative = inhibition
COC(=O)c1ccc(C(=O)OC)c(=O)[nH]1 | inconclusive [activator, partial curve] | –
O=C1CC(Cc2ccccc2)C(=O)N1Cc1ccco1 (centres undefined) | inactive | –
Cc1ccc(Nc2nc(C(=O)N3CCC(C(=O)NCCN4CCOCC4)CC3)cs2)cc1 | inconclusive [activator, single point] | –
CCC(C)(C)NC(=O)C(c1ccc(C)cc1)N(Cc1cccnc1)C(=O)c1csnn1 (centres undefined) | inconclusive [inhibitor, single point] | –
CCCCn1nc(C(=O)Oc2ccc3c(C)cc(=O)oc3c2)c2ccccc2c1=O | inconclusive [activator, partial curve] | –
Cc1c(C)c2cc(Cl)c(O)c(CN3CCCCC3)c2oc1=O | inconclusive [activator, partial curve] | –
COc1ccc(NC(=O)c2c(F)cccc2F)cc1S(=O)(=O)Nc1ccc(Br)cc1 | inconclusive [inhibitor, partial curve, poor fit] | –
Clc1ccc2nc3ccccn3c2c1 | inconclusive [activator, single point] | –
CCN(CC)CCCNC(=O)CCC(=O)Nc1ccc2nc(N3CCCCC3)cc(C)c2c1 | inconclusive [activator, single point] | –
O=C1C(Cl)=C(Nc2ccccc2)C(=O)c2ccccc21 | inactive | –
COC(=O)N1C2=C(c3ccccc3[C@@H]1CC(=O)Nc1ccc3cc4ccccc4cc3c1)[C@@H]1C(=O)N(c3ccccc3)C(=O)[C@@H]1[C@H](C)C2 | – | inactive: -3.69% [at 17.4 µM]
c1ccc(N2CCN(c3nc(-c4cccs4)nc4ccccc34)CC2)cc1 | inactive | –
CC(=O)N[C@H]1CSSC[C@@H](C(=O)N2CCC[C@H]2C(=O)N2CCC[C@H]2C(=O)N[C@@H](CCCCN)C(=O)N[C@@H](CC(=O)O)C(N)=O)NC(=O)CNC(=O)[C@H](Cc2c[nH]c3ccccc23)NC(=O)[C@H](CCCNC(=N)N)NC(=O)[C@@H](Cc2ccc3ccccc3c2)NC(=O)[C@H](Cc2cnc[nH]2)NC(=O)[C@H](CCC(=O)O)NC1=O | inactive | –
COc1ccc(O[C@H]2C=C[C@@H](c3ccccc3)O[C@H]2COC(=O)NCc2cccc3ccccc23)cc1 | – | inactive: 0.449% [at 17.4 µM]
O=c1[nH][nH]c(-c2ccccc2)c1C=Nc1ccc(Cl)cc1 | inconclusive [inhibitor, full curve, poor fit] | –
O=c1oc2cc(O)ccc2c2oc3cc(O)ccc3c12 | inconclusive [activator, partial curve] | –
CC(=O)Oc1ccc2cc(-c3nc4ccccc4n3C)c(=O)oc2c1 | inconclusive [activator, partial curve] | –
Oc1[nH]c2ccccc2c1C=Nc1ccc2c(c1)OCCO2 | inactive | –
CCn1c(SCC(=O)N/N=C/C=C/c2ccco2)nc2ccccc21 | inactive | –
N=c1oc2cc(O)ccc2cc1C(=O)Nc1ccccn1 | inconclusive [activator, partial curve] | –
Cc1cc(/C=C2\C(=O)NC(=O)N(c3cccc(F)c3)C2=O)c(C)n1-c1cc(C(=O)O)cc(C(=O)O)c1 | inactive | –
Nc1c2ccccc2nc2ccccc12 (tested in a mixture with another compound) | inconclusive [activator, partial curve] | –

Structure (SMILES) | Potency | activity change, negative = inhibition
CCOC(=O)c1ccc(NC(=O)c2ccccc2)cc1 | inconclusive [inhibitor, partial curve, poor fit] | –
COc1ccc(-c2nc3c(c4c2C[C@H](c2ccccc2)OC4)CN(C(=O)Nc2cccc(C#N)c2)CC3)c(C)c1 | – | inactive: 1.95% [at 17.4 µM]
CCOC(=O)NNc1ccc2nonc2c1[N+](=O)[O-] | inactive | –
CCOP(=O)(OCC)c1nc(/C=C/c2ccccc2)oc1NCc1ccc(OC)cc1 | inconclusive [activator, single point] | –
Cc1cc(=O)oc2cc(NS(=O)(=O)c3ccccc3)ccc12 | inconclusive [activator, partial curve] | –
CCOc1ccc(OCCSc2nnnn2C2CCCCC2)cc1 | inconclusive [inhibitor, single point] | –
CCn1cc(CNC(=O)CCc2ccc(OC)cc2)cn1 | inconclusive [inhibitor, partial curve] | –
O=C(COc1ccccc1)N1CCNC1=O | inconclusive [inhibitor, full curve, poor fit] | –
CC(c1ccon1)N(C)C(=O)CCc1nnc(C2(c3ccc(Cl)cc3)CCC2)o1 (centres undefined) | inactive | –
Cc1ccc(NC(=O)c2ccc(CSc3nnc(C)s3)cc2)c(C)c1 | inconclusive [inhibitor, full curve, poor fit] | –
Cc1cc(Nc2ccc(Cl)cc2)nc(NCc2ccccc2)n1 | inactive | –
CCNc1ncc2nc(C)c(=O)n(C[C@H]3CCCO3)c2n1 | inconclusive [activator, single point] | –
CCc1ccc(S(=O)(=O)Nc2ccc(-c3nc4cccnc4s3)cc2)s1 | inconclusive [activator, partial curve] | –
O=c1cc(CN2CCN(S(=O)(=O)/C=C/c3ccccc3)CC2)c2ccc(O)cc2o1 | inconclusive [activator, single point] | –
NNc1nc(C(F)(F)F)nc2ccccc12 | inactive | –
Cc1ccc(C)c(-n2c(=O)c(C#N)cc3c(=O)n4ccccc4nc32)c1 | inconclusive [activator, full curve] | –
COC(=O)c1cccc2nc3c(C(C)O)cccc3nc12 (centres undefined) | inconclusive [inhibitor, single point] | –
CCCCC/C=C\C/C=C\C/C=C\C/C=C\CCCCCC(=O)NCCCC(=O)O | inactive | –
O=C(Oc1ccc2c3c(c(=O)oc2c1)CCCC3)c1ccco1 | inconclusive [activator, partial curve] | –
CC(O)(CS(=O)(=O)Cc1cccc(C(F)(F)F)c1)C(=O)Nc1cccc(C(F)(F)F)c1 (centres undefined) | inconclusive [inhibitor, single point] | –
